Reference: PubChem BioAssay AID488969 (Vanderbilt High Throughput Screening Facility, 2010)
The full ranking holds about 110,000 compounds; the median of “z-score” is about -0.1, and the highest 2% start at about 2. Some of the results follow. Calls of active or inactive are those of the source.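 The calls were made as follows: active = z-score in the third read window above 3 or below -3; inactive = the rest.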 Non-standard residues stand in square brackets, D forms with d. Residues, ends and D or L forms follow the SMILES beside them. ξ: configuration not given here. *: point of attachment. ξF = NC(Cc1ccccc1)C(=O)O; Cbz = O=C(OCc1ccccc1)*

Each compound was assayed against Metabotropic glutamate receptor 8 (Rattus norvegicus) (UniProt P70579) (assay: rat mGluR8 modulators via GIRK flux, primary screen, cell-based, thallium flux, HTS (AID 488969)). Conditions: HEK293 rat mGluR8, GIRK (G protein-gated inwardly rectifying potassium channel) thallium flux, FluoZin2; at 10 µM; stronger effect = higher value; submaximal glutamate (EC20) added with thallium.
UniProt P70579, sequence (P70579 whole entry, looked up): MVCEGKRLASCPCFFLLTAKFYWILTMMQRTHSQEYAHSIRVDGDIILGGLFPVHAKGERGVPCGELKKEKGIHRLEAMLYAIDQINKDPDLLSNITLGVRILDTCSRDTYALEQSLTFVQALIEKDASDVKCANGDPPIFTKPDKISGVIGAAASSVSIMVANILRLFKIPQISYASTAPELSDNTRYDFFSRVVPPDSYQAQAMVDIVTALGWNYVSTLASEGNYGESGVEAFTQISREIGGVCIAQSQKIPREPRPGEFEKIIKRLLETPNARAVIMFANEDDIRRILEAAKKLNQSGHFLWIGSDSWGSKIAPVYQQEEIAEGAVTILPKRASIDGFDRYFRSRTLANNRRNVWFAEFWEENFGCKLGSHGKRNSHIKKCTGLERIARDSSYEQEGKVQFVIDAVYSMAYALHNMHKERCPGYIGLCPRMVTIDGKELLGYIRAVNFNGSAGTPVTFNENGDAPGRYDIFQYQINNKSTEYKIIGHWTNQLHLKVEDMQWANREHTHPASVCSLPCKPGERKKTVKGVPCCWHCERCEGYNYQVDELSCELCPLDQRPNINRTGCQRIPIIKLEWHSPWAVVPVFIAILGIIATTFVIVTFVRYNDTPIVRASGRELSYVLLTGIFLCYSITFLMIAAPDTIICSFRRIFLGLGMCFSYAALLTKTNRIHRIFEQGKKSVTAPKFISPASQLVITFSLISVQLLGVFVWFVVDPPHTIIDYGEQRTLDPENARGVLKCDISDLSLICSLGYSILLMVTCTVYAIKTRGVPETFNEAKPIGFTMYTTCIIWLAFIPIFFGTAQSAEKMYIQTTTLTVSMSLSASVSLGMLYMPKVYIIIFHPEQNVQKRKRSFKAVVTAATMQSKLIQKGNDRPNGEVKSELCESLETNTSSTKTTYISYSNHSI

| Structure (SMILES) | z-score |
| --- | --- |
| CCSCc1nnc(SCC(=O)c2ccc(OC)cc2)n1C | -0.0883 |
| O=C(O)CCC(NC(=O)c1cncc(O)c1)C(=O)O (stereo not given) | -0.432 |
| CSc1nc(N)nc(SCC(=O)Nc2cccc(F)c2)c1C#N | 0.132 |
| Cc1cc(C)nc(NS(=O)(=O)c2ccc(NC(=O)Cn3c(=O)oc4ccccc43)cc2)n1 | -0.444 |
| COc1cc2[nH]c(=S)n(CC3CCCO3)c(=O)c2cc1OC (stereo not given) | -0.0769 |
| C1=C(c2ccccc2)Nc2ccccc2N=C1c1ccccc1 | 0.0836 |
| Cc1ccc(NC(=O)COn2nnc3ccc(S(=O)(=O)N(C)C)cc32)cc1F | active: 3.29 |
| O=C(NCSc1ccncn1)c1ccccc1 | -0.0653 |
| CC(Sc1nc(-c2ccccc2)cc(=O)[nH]1)C(=O)O (stereo not given) | -0.115 |
| COc1ccc(CNC(=O)c2ccccc2[N+](=O)[O-])cc1 | -0.0101 |
| O=C(NCc1ccccc1)C(=O)NCC1OCCN1C(=O)c1cccs1 (stereo not given) | 0.237 |
| Cc1cc(NC(=O)/C=C/C(=O)N(c2ccccc2C)C(C(=O)NC2CCCC2)c2ccc(F)cc2)no1 (stereo not given) | -0.496 |
| Cc1ccc(-n2c(SCC(=O)Nc3cc(C)on3)nc3ccccc3c2=O)cc1 | -0.46 |
| CC(=O)NC(=O)Nc1sc(=S)n(C)c1C | 0.401 |
| CCOC(=O)c1c(N)n(C2CC(C)(C)NC(C)(C)C2)c2nc3ccccc3nc12 | -0.154 |
| CCN(CC)C(=O)CNC(=O)Cc1ccc(Cl)cc1 | -0.302 |
| CC(C)CC(=O)Nc1cc(NC(=O)CC(C)C)cc(C(=O)NC(C)(C)C)c1 | 0.12 |
| C=CCn1c(SCc2cccc3ccccc23)nnc1-c1cccnc1 | -0.0946 |
| Cc1ccc(NC(=O)CC2COc3ccccc3O2)cc1 (stereo not given) | 1.4 |
| O=c1cc(/C=C/c2ccccc2)oc2ccccc12 | -0.376 |
| COc1ccccc1-n1nnnc1SCc1ccccc1 | -1.83 |
| Cc1nn(-c2ccccc2)c(Cl)c1/C=N/NC(=O)CNC(=O)c1ccccc1Cl | 0.749 |

| Structure (SMILES) | z-score |
| --- | --- |
| CCc1ccc(NSc2ccccc2[N+](=O)[O-])cc1 | 0.0687 |
| CN(C)c1c([N+](=O)[O-])ncn1C | -0.216 |
| O=C(NCCCn1ccnc1)c1ccc(Br)c(S(=O)(=O)N2CCOCC2)c1 | 0.0366 |
| Cc1ccc(NC(=O)COC(=O)CCC(=O)c2ccc(C(C)(C)C)cc2)c([N+](=O)[O-])c1 | -0.133 |
| CCC(c1nnnn1Cc1ccc2c(c1)OCO2)N1CCN(c2ccc(F)cc2)CC1 (stereo not given) | 0.979 |
| COC(=O)CN1C(C)=Nc2ccc(Br)cc2C1c1ccccc1 (stereo not given) | -0.281 |
| Cc1cccc(OCC(=O)N(C)CCc2ccccn2)c1 | -0.0563 |
| CCOC(=O)C(Cc1ccccc1)NC(=O)CNC(=O)CNC(=O)OCc1ccccc1 (stereo not drawn) (Cbz-Gly-Gly-[ξF]-OEt) | -0.308 |
| O=C(/C=C/c1cccs1)c1cc(F)ccc1OC(=O)N1CCOCC1 | -0.085 |
| COc1ccc(N=C(NN)c2ccc3ccccc3n2)cc1 | -0.00827 |
| COc1ccc2cc3c(N)nn(C(=O)c4cccc([N+](=O)[O-])c4)c3nc2c1 | -0.0641 |
| COc1ccc(OC)c(NC(=S)NCCC(c2ccccc2)c2ccccc2)c1 | -0.202 |
| CCOC(=O)CCc1c(C)c2ccc(OCc3cc([N+](=O)[O-])ccc3OC)c(C)c2oc1=O | 0.0893 |
| COc1ccc(CC(=O)OCN2C(=O)c3ccccc3C2=O)cc1 | -0.0589 |
| CCOC(=O)c1c(NC(=O)COC(=O)c2ccccn2)sc2c1CCC2 | -0.578 |
| O=C1NN(c2ccc(Cl)c(Cl)c2)C(=O)/C1=C/c1cccc(OC(=O)c2cccs2)c1 | 0.137 |
| Cc1cc(C)cc(OCC(=O)O/N=C(\N)c2ccccn2)c1 | -1.66 |
| O=C(COC(=O)Cc1ccccc1F)Nc1ccc2c(c1)OCCO2 | -0.043 |
| CC(C)CNC(=S)NNC(=O)c1csc2c1CCC(C)C2 (stereo not given) | -1.59 |
| COc1ccc(NS(=O)(=O)c2cc(NC(=O)CNC(=O)c3cccc(OC)c3)ccc2C)cc1 | -0.127 |
| CS(=O)(=O)N1CCCC(C(=O)NCc2ccccn2)C1 (stereo not given) | 0.915 |
| COc1cccc2c(=O)n(CC(=O)Nc3ccc(F)cc3F)ccc12 | 0.0182 |

| Structure (SMILES) | z-score |
| --- | --- |
| O=[N+]([O-])c1cccc(CSc2nc3ccccc3[nH]2)c1 | 0.239 |
| CCOc1ccc(C(F)(F)F)cc1NC(=O)c1ccc(OC)c([N+](=O)[O-])c1 | 0.372 |
| N#Cc1nc(Cc2ccccc2)oc1NCCN1CCOCC1 | -0.064 |
| O=C(NCC(=O)N(CC1CCCO1)C1(C(=O)NC2CCCCC2)CCCCC1)c1ccccc1 (stereo not given) | -1.13 |
| CCOc1cc(S(=O)(=O)N2CCCC2)ccc1Cl | 0.185 |
| COCCNc1cc(C)nc2c3c(C)cc(C)nc3nn12 | -0.343 |
| COC(=O)C(NC(C)=O)(Nc1ccccn1)C(F)(F)F (stereo not given) | 0.324 |
| COc1ccc(NC(=O)Nc2cc(C)ccc2F)cc1 | 0.0419 |
| Cc1ccc(S(=O)(=O)N2CCCC(C(=O)NCC3COCCO3)C2)cc1 (stereo not given) | -0.056 |
| COC(=O)Cn1c(CN2CCC(Cc3ccccc3)CC2)nc2c1c(=O)n(C)c(=O)n2C | 0.485 |
| COc1cc(NC2=Nc3cccc4cccc2c34)cc(OC)c1OC | -0.385 |
| O=C(CSCc1ccccc1Cl)N1CCN(c2ccccn2)CC1 | -0.566 |
| Cc1cccc(C2CC(c3ccc(Br)cc3)Nc3nc(N)nn32)c1 (stereo not given) | 0.474 |
| O=C(COc1cc(Cl)c(Cl)cc1Cl)NCCN1CCOCC1 | -0.906 |
| O=C(NCC1CCCO1)c1ccc(S(=O)(=O)N2CCCCC2)cc1 (stereo not given) | -0.0626 |
| O=C1c2ccccc2-c2cccc(NS(=O)(=O)c3ccc(C(F)(F)F)cc3)c21 | 2.66 |
| Cc1nonc1C(=O)N/N=C/c1ccc(O)c(O)c1 | -0.332 |
| O=C(NCc1ccco1)C1CCN(Cc2ccc(F)cc2)CC1 | 0.293 |
| O=C(NCc1ccccc1Cl)C1CCCN(S(=O)(=O)c2cnc[nH]2)C1 (stereo not given) | -0.129 |
| O=C(c1cn(-c2ccccc2)nc1-c1cccnc1)N1CCCCC1 | -0.0479 |
| CCOC(=O)C(=O)Nc1ccc2c(c1)OCO2 | 0.0617 |
| CS(=O)(=O)N(CC(=O)Nc1ccc(F)c(F)c1)c1cccc([N+](=O)[O-])c1 | 0.348 |

| Structure (SMILES) | z-score |
| --- | --- |
| O=C1N/C(=N\N=C\c2cccs2)SC1Cc1cccc(Cl)c1 (stereo not given) | -0.183 |
| C=CCc1ccccc1OCC(O)CN(C(C)C)C(C)C (stereo not given) | 0.467 |
| N=c1n(CCN2CCCCC2)c2ccccc2n1CC(O)COc1ccccc1 (stereo not given) | 1.11 |
| O=C(/C=C/c1cn(CC(O)CN2CCCCCC2)c2ccccc12)c1cccs1 (stereo not given) | -0.724 |
| Cc1ccc(NC(=O)c2ccccc2-c2ccc(C(F)(F)F)cc2)cc1S(=O)(=O)N1CCOCC1 | 0.431 |
| CCCNS(=O)(=O)c1ccc(OCC(=O)OC)cc1 | -0.126 |
| Cc1cc(C(=O)CSc2nc3ccccc3[nH]2)c(C)n1C | -0.063 |
| Cc1cc(C)cc(N(C(=O)c2nsc(Cl)c2Cl)C(C(=O)NC2CCCC2)c2ccc(O)cc2)c1 (stereo not given) | -0.0535 |
| O=C(CSc1nc(SCC(=O)NCc2ccccc2)n(-c2ccccc2)n1)NCc1ccccc1 | -0.236 |
| CCOC(=O)/C(=N/Nc1ccc(Cl)cc1)S(=O)(=O)c1ccccc1 | -0.198 |
| Cc1nn(C(C)C(=O)O)c(=O)c2c1sc1ccccc12 (stereo not given) | -0.395 |
| CSc1nc(N)nc(SCC(=O)c2ccc(C)cc2)c1C#N | -0.147 |
| O=C(Nc1ccccn1)c1ccc([N+](=O)[O-])o1 | -0.0759 |
| CCOC(=O)c1ccc(NC(=O)CC2C(=O)N(c3ccccc3)C(=O)N2CCCOC)cc1 (stereo not given) | -0.493 |
| CC(C)(NO)/C(=N\O)c1ccc(Cl)cc1 | 0.0275 |
| CCOC(=O)c1nn(-c2ccc(Cl)cc2)c2nc(-c3ccc(C)cc3)c(C#N)c(=O)n12 | 0.000659 |
| CCOC(=O)C1=C(C)N(C)C(C)=C(C(=O)OCC)C1c1ccncc1 | 0.0979 |
| O=C(O)c1[nH]c2ccccc2c1NS(=O)(=O)Cc1ccccc1 | 0.317 |
| CSCCC(NS(=O)(=O)c1ccc(Cl)cc1)C(=O)OCC(=O)N1CCCc2ccccc21 (stereo not given) | -0.3 |
| CCC1(C)CC(CCNS(=O)(=O)c2ccc(C)cc2)(c2ccc(C)cc2)CCO1 (stereo not given) | -0.421 |
| Fc1ccccc1COc1ccccc1CNCc1ccncc1 | 0.0916 |
| CC(=Nc1ccccc1)c1sc2ccccc2c1O | 1.15 |

| Structure (SMILES) | z-score |
| --- | --- |
| COC(=O)COc1ccc(S(=O)(=O)Nc2ccc(C(N)=O)cc2)cc1C | 0.213 |
| COCCCn1c(SCC(=O)Nc2ccccc2)nnc1-c1ccncc1 | 0.407 |
| COc1cc(CN(C)C(C)C(=O)Nc2ccc([N+](=O)[O-])cc2Cl)ccc1OC(F)F (stereo not given) | -0.445 |
| CC(=O)c1ccc(OCC(O)CN2CCN(CCN3C(=O)c4cccc5cccc(c45)C3=O)CC2)cc1 (stereo not given) | -0.766 |
| CC(C)NC(=O)c1cnn2c1NC(c1cccs1)CC2C(F)(F)F (stereo not given) | 0.0459 |
| O=C(OCC(=O)N1CCCC1)c1ccccc1OCc1ccccc1 | -0.212 |
| COC(=O)CNc1nc(OC)nc(N(C)C)n1 | 0.391 |
| CCC(=O)N1CCN(C(=O)CC)C1c1ccccc1 | 0.224 |
| CCN1CCN(CCNC(=O)C2CCCN(Cc3nc(-c4cccc(Cl)c4)oc3C)C2)CC1 (stereo not given) | -0.134 |
| O=C1CN(C(=O)c2ccc(Br)o2)C(c2ccccc2)c2cc(Cl)ccc2N1 (stereo not given) | -0.83 |
| O=C(c1cccs1)N1N=C(c2ccccc2)CC1c1ccccc1 (stereo not given) | -0.101 |
| c1ccc2c(CN3CCCCC3)csc2c1 | 0.275 |
| CCc1[nH]nc2c1C(c1ccsc1)C(C#N)=C(N)O2 (stereo not given) | -0.447 |
| CCOc1cc(CNC2CCCC2)cc(Cl)c1OCc1ccccc1 | 1.32 |
| O=C(NC1CCCC1)C1C2C=CC(C2)C1C(=O)N1CCOCC1 (stereo not given) | -0.0834 |
| CCOc1ccc(Cl)cc1CNCCNCC(C)O (stereo not given) | 2.17 |
| Cc1cccc(NC(=O)NCCc2c[nH]c3ccccc23)c1 | 0.555 |
| COc1ccc(OC)c(N(CC(=O)NCCSc2ccccc2)S(C)(=O)=O)c1 | 0.337 |
| Cc1snc(SCC(=O)c2ccc(Cl)cc2)c1C#N | -0.288 |
| Cn1c(/C=C/N2CCOCC2)c(C(=O)c2ccc(Br)cc2)c(=O)n(C)c1=O | 0.29 |
| CCOC(=O)COc1ccc(Br)cc1/C=C\c1[nH]c(=O)[nH]c(=O)c1[N+](=O)[O-] | -0.177 |
| CC(C)(C)NC(=O)COC(=O)c1cc(Br)ccc1Cl | -0.0444 |
